The whole screen tested about 46,000 compounds, of which about 60 (0.1%) were called active. Inconclusive results (about 3%) are left out. The call rests on the fitted dose curve; in most records, active means well fitted inhibition curve with a large enough effect; inconclusive means small, poorly fitted or top-dose-only effect; inactive means no such curve, though single readings can be large or run the other way. The list shows a part of the results.
Test: Primary qHTS assay for Inhibitors of ovarian cancer metastasis using an organotypic tumor microenvironment (TME) model. Further: nearly all actives have a fitted effect of over 65% in size.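 On activity change, negative = inhibition: plate controls were DMSO wells for no effect and tomatine positive control wells for full effect.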
Conditions: SKOV3ip1-GFP adhesion/invasion on 3D omental model, fluorescence; series mostly up to 45.8 µM; activity change, negative = inhibition: at the top concentration
How it was run: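 qHTS, 4-pt dose (0.36-46 umol/L); SKOV3ip1-GFP, 1,200 cells/well, no FBS; primary omental fibroblast/mesothelial co-culture 48 h pre-grown; 2 h RT + 16 h 37 C; PBS wash, 4% PFA; GFP count 488/509 nm.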

| SMILES | activity change, negative = inhibition | outcome |
| --- | --- | --- |
| COc1ccc(CCN2C(=O)N(c3ccc(F)cc3)C(=O)C2CC(=O)Nc2ccccc2)cc1 (stereo not drawn) | inactive: 4.39% |  |
| O=C(CN1CCN(Cc2ccccc2Cl)C1=O)NCc1ccccc1Cl |  | inactive |
| COCCCNC(=O)CSc1nc(-c2cccc(F)c2)[nH]c1-c1ccccc1 | inactive: -3.67% |  |
| COc1ccc(-c2c(C#N)c(SCC(=O)Nc3ccccc3C)nc(C)c2C(=O)Nc2ccccc2)cc1OC |  | inactive |
| CCC(Nc1ccc(-c2nc(-c3ccco3)no2)cc1[N+](=O)[O-])c1ccccc1 (stereo not drawn) | inactive: 3.82% |  |
| Cc1cccc(-c2nc(CCNC(=O)Cc3ccc(F)cc3)cs2)c1 | inactive: -0.268% |  |
| COc1ccccc1NC(=O)CSc1ccc(-c2sc(C)nc2C)nn1 |  | inactive |
| COc1ccccc1CNC(=O)Cn1c(=O)oc2cc(S(=O)(=O)N3CCC(C)CC3)ccc21 | inactive: -8.67% |  |
| COc1ccc(-c2cc(C(F)F)n3ncc(C(=O)Nc4cc(OC)ccc4OC)c3n2)cc1 | inactive: 0.173% |  |
| CCOc1ccc(NC(=O)Cc2coc3ccc(C)cc23)cc1 | inactive: -2.42% |  |
| CCc1cnc2c(c1SCC(=O)Nc1ccc(Cl)cc1)c(=O)n(C)c(=O)n2C | inactive: -7.52% |  |
| CC(CNC(=O)Cn1ccc2cc(S(=O)(=O)N3CCCCC3)ccc21)c1ccccc1 (stereo not drawn) |  | inactive |
| O=C(NCC(c1ccc2c(c1)OCO2)N1CCOCC1)c1ccccc1F (stereo not drawn) | inactive: -0.551% |  |
| CCc1ccc(CNC(=O)CCc2c(C)nn(-c3ccc(N4CCCCC4)nn3)c2C)cc1 | inactive: 8.64% |  |
| Cc1cccn2cc(-c3cccc(NS(=O)(=O)c4ccc(Cl)c(Cl)c4)c3)nc12 | inactive: 7.77% |  |
| O=C(NCc1ccccc1)c1nnc(Cc2cccc(F)c2)o1 | inactive: 10% |  |
| CCc1ccc2occ(CC(=O)Nc3c(C(=O)Nc4ccc(OC)cc4)oc4ccccc34)c2c1 | inactive: 5.24% |  |
| COc1ccc(C2c3cccn3CCN2S(=O)(=O)c2ccccc2[N+](=O)[O-])cc1OC (stereo not drawn) | inactive: -8.41% |  |
| Cc1ccc2nc(Cl)c3cc(C(=O)N(C)C4CCCCC4)sc3c2c1 |  | inactive |
| CCOc1ccc(CCNC(=O)C2CCN(C(=O)N3CC(CC)Oc4ccc(C)cc43)CC2)cc1 (stereo not drawn) |  | inactive |
| CCOC(=O)c1c(C)oc2nc(C)nc(NCC3CCN(Cc4cccc(C)c4)CC3)c12 | inactive: -18.5% |  |
| Cc1ccc(NC(=O)CSc2nc3ccc(NC(=O)c4cccs4)cc3s2)c(C)c1 | inactive: -1.71% |  |
| COc1cccc(Cn2c(=O)n(-c3cccc(Cl)c3C)c(=O)c3c4c(sc32)CN(C(C)=O)CC4)c1 | inactive: -3.62% |  |
| CCn1c(CNC(=O)c2ccc(OC)cc2)nnc1SCC(=O)Nc1cccc(C)c1C | inactive: 5.4% |  |

| SMILES | activity change, negative = inhibition | outcome |
| --- | --- | --- |
| CCOc1ccc(-c2nnc(SCC(=O)NCc3ccc(C)cc3)nc2-c2ccc(OCC)c(OC)c2)cc1OC | inactive: 0.425% |  |
| CCOc1ccc(NC(=O)CSC2=Nc3ccccc3C3=NC(CCC(=O)NCc4cccs4)C(=O)N23)cc1 (stereo not drawn) | inactive: 12.1% |  |
| Cc1ccc(CNC(=O)CCS(=O)(=O)c2ccc3c(c2)CC(C)N3C(=O)C2CC2)cc1 (stereo not drawn) |  | inactive |
| COc1ccc2c(c1)c1c(c(=O)n(-c3cccc(Cl)c3)c(=O)n1CC(=O)NCC1CCCO1)n2C (stereo not drawn) | inactive: 43.8% |  |
| Cc1nn(-c2ccccc2)c(OC(=O)c2ccccc2Cl)c1S(=O)(=O)c1ccccc1 | inactive: -16.9% |  |
| CCOc1ccc(-n2cc(-c3ccccc3)c3c(NC4CCCCC4)ncnc32)cc1 | inactive: -17.8% |  |
| CCOC(=O)c1[nH]c(C)c(CCC(=O)Nc2cccc(C(F)(F)F)c2)c1C | inactive: 2.57% |  |
| CC(CNC(=O)c1nnc(Cc2cccc(F)c2)o1)c1ccccc1 (stereo not drawn) | inactive: -2.98% |  |
| COc1cc(CNCCSc2nnnn2C)ccc1OCc1ccc(F)cc1 | inactive: 9.54% |  |
| CCc1nn2c(=O)cc(COC(=O)c3ccccc3NC(=O)COc3ccc(F)cc3)nc2s1 | inactive: -3.43% |  |
| COCCNC(=O)Cn1cnc2sc(C)c(S(=O)(=O)N3CCN(c4ccccc4OC)CC3)c2c1=O | inactive: -6.91% |  |
| COc1ccccc1C(=O)NCCSc1c(C)[nH]c2ccccc12 | inactive: -11.3% |  |
| CC(=O)c1cccc(NC(=O)[C@H](Cc2ccccc2)N2Cc3ccccc3C2=O)c1 | inactive: -20.3% |  |
| CCC(NC(=O)Nc1ccc(OC)c(OC)c1)c1c(-n2cccc2)sc2c1CCN(C)C2 (stereo not drawn) | inactive: 4.35% |  |
| COc1ccc(N2CC(NC(=O)C3CC3)CC2=O)cc1 (stereo not drawn) | inactive: -12% |  |
| COc1ccc(-c2nc3ccccc3o2)cc1NC(=O)C(C)(C)Oc1ccc(Br)cc1 | inactive: -2.47% |  |
| Cc1cccc(NC(=O)C2CCCN(S(=O)(=O)c3c(C)[nH]c(=O)[nH]c3=O)C2)c1C (stereo not drawn) | inactive: -26.5% |  |
| COc1ccc(CCNC(=O)c2ccc3c(c2)N=C(C)c2cc(C)ccc2S3)cc1OC | inactive: -26.2% |  |
| CCc1ccc(NC(=O)Cn2c(=O)c(CNc3ccccc3)cc3cc(OC)c(OC)cc32)cc1 |  | inactive |
| COc1cccc(NC(=O)CSc2nc(=O)n(Cc3ccccn3)c3c2CCC3)c1 | inactive: 0.236% |  |
| O=c1oc2ccc3ccccc3c2cc1-c1nnc(Nc2ccc(Cl)cc2Cl)s1 | inactive: -1.11% |  |
| O=C(Cn1c(=O)oc2cc(S(=O)(=O)N3CCCC3)ccc21)NCc1ccc(Cl)cc1 |  | inactive |
| COc1cccc(N2CCN(C(=O)CCS(=O)(=O)c3ccc4c(c3)CC(=O)N4C)CC2)c1 | inactive: 1.64% |  |
| COc1ccc2cc([S+]([O-])Cc3ncc(C)c(OC)c3C)nc2c1 | inactive: -5.18% |  |

Reference: PubChem BioAssay AID1963576 (National Center for Advancing Translational Sciences (NCATS), 2024)
